Measured values: US20210363269A1 (ALX ONCOLOGY, published 2021)
Numbering of substitutions follows the chain as printed.

Legend:
[1] = biological target: T1, human SIRP-α v2 D1 domain (human); experiment: SPR
T1 construct: also called human v2
Summary of the method: (§1)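 Pre-filtered culture media supplied the scFv-Fc antibody clones, which were captured by anti-human IgG Fc amine-coupled (about 4000 RU) to a GLC chip on a ProteOn XPR36. SIRP analytes were flowed in PBS pH 7.4 with 0.01% Tween-20 at 25° C. Interspot and buffer-blank responses were subtracted from the data, which were then fitted to a 1:1 Langmuir model. Dissociation rate constants (koff) were derived from this fitting.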

[2] = biological target: T2, mouse 129 SIRP-α D1 domain (mouse (129 strain), UniProt P97797 32-150); experiment: SPR
T2 construct: also called m129
T2 chain: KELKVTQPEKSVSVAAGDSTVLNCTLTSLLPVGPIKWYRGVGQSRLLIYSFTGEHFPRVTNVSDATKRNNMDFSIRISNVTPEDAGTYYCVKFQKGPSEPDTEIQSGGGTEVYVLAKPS
Summary of the method: as §1

[3] = biological target: T3, NOD mouse SIRP-α D1 domain (mouse (NOD strain)); experiment: SPR
T3 chain: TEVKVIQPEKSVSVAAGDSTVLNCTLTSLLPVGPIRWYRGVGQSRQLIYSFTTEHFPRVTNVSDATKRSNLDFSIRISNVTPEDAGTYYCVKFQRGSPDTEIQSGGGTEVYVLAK
Summary of the method: as §1

[4] = biological target: T4, C57BL/6 mouse SIRP-α D1 domain (mouse (C57BL/6 strain), UniProt P97797 32-148); experiment: SPR
T4 sequence: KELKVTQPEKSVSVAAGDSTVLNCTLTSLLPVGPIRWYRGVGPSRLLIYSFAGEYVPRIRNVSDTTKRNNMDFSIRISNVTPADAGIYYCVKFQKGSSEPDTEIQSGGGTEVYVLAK
Summary of the method: as §1

[5] = biological target: T5, high affinity SIRP-α D1 variant CV1-3; experiment: SPR, Langmuir fit
T5 chain: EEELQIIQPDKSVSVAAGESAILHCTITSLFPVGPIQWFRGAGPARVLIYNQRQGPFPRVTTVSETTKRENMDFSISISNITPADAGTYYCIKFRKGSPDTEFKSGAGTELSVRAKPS
Summary of the method: as §1

[6] = biological target: T6, human SIRPγ isoform 1 (human, UniProt Q9P1W8 29-147); experiment: SPR, Langmuir fit
T6 construct: also called SIRPg; sirpg
Summary of the method: as §1

[7] = biological target: T7, human SIRP-α v1 D1 domain (human, UniProt P78324 31-149); experiment: SPR, Langmuir fit
T7 construct: also called human v1
Summary of the method: as §1

[8] = biological target: T8, cynomolgus SIRP-α D1 domain (cyno1) (cynomolgus monkey, UniProt Q5TFQ8 30-148 (human entry), limits assumed); experiment: SPR, Langmuir fit
T8 chain: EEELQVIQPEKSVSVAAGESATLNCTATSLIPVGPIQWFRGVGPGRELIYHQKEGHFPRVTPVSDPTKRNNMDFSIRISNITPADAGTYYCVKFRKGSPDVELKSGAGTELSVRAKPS
Summary of the method: as §1

[9] = biological target: T9, cynomolgus SIRP-α D1 domain (cyno2) (cynomolgus monkey, UniProt Q5TFQ8 30-148 (human entry), limits assumed); experiment: SPR, Langmuir fit
T9 chain: T8 chain with E19D, A27V, T28S, V42A, H51N, Q52L, P62A
Summary of the method: as §1

[10] = biological target: T10, NOD mouse SIRP-α D1 domain (mouse (NOD strain)); experiment: ELISA, target coated on the plate, scFv-Fc titrated from 0.008 to about 1 µg/ml, OD 405
T10 construct: also called mouse NOD SIRPα
T10 chain: T3 chain
Description: (§2) ELISA assays were carried out to screen binding of antibody clones to SIRP analytes and SIRP-α:CD47 complex. […] Plates were blocked with PBS™ (Phosphate Buffered Saline pH 7.4, 0.05% Tween®20 polysorbate, 3% milk), 50 ul of supernatant containing the secreted scFv-Fc are added for 1 hr at room temp. Plates were washed with PBST. 50 ul of anti-hFc-HRP (1:5000 Rockland 609-4303) added for 1 hr at room temp. Plates were washed with PBST. TMB was developed for 5 min and stopped with 1N HCl. ELISA results were read using BioTek Synergy H1 Hybrid Reader. The corresponding proteins used for the assay and described here are: human SIRPα V1 (SEQ ID NO: 5); human SIRPα V2 (SEQ ID NO:6); cynomolgus SIRPα (SEQ ID NO:11); mouse NOD SIRPα (SEQ ID NO: 8); human SIRPγ (SEQ ID NO: 15); CD47 (SEQ ID NO: 16); high affinity SIRPα V1 (SEQ ID NO: 42); high affinity SIRPα V2 (SEQ ID NO:17).

[11] = biological target: T11, human SIRPγ isoform 1 (human, UniProt Q9P1W8 29-147); experiment: as above
T11 construct: also called human SIRP-γ v1; sirpg
Description: as §2

[12] = biological target: T12, mouse 129 SIRP-α D1 domain (mouse (129 strain), UniProt P97797 32-150); experiment: SPR, captured scFv-Fc
T12 construct: also called m129
T12 chain: T2 chain
Summary of the method: as §1

[13] = biological target: T13, human SIRP-α v1 D1 domain (human, UniProt P78324 31-149); experiment: SPR, captured scFv-Fc, 100 nM analyte
T13 construct: also called human v1; human α v1

[14] = biological target: T14, human SIRPγ isoform 1 (human, UniProt Q9P1W8 29-147); experiment: SPR, captured scFv-Fc, 100 nM analyte
T14 construct: also called sirpg; sirp-g

[15] = biological target: T15, high affinity SIRP-α D1 variant CV1-3 (human); experiment: SPR, captured scFv-Fc, 100 nM analyte
T15 chain: T5 chain

[16] = biological target: T16, human SIRP-α v2 D1 domain (human); experiment: SPR, captured scFv-Fc, 100 nM analyte
T16 construct: also called human v2; human α v2

[17] = biological target: T17, cynomolgus SIRP-α D1 domain (SEQ ID NO:11) (cynomolgus, UniProt Q5TFQ8 30-148 (human entry), limits assumed); experiment: SPR, captured scFv-Fc, 100 nM analyte
T17 construct: also called cyno1
T17 chain: T8 chain

[18] = biological target: T18, cynomolgus SIRP-α D1 domain (SEQ ID NO:12) (cynomolgus, UniProt Q5TFQ8 30-148 (human entry), limits assumed); experiment: SPR, captured scFv-Fc, 100 nM analyte
T18 construct: also called cyno2; Cyno2
T18 chain: T8 chain with E19D, A27V, T28S, V42A, H51N, Q52L, P62A

[19] = biological target: T19, human SIRPβ isoform 1 (human, UniProt O00241 30-148); experiment: SPR, captured scFv-Fc, 100 nM analyte
T19 construct: also called sirpb1; Sirpb1

[20] = biological target: T20, NOD mouse SIRP-α D1 domain (mouse (NOD strain)); experiment: SPR, captured scFv-Fc, 100 nM analyte; LB = very low binding
T20 chain: T3 chain
Description: (§3) Binding of the antibody clones to various SIRP proteins was determined using surface plasmon resonance (SPR) detection on a ProteOn XPR36 instrument (Bio-Rad, Hercules, Calif.) using phosphate buffered saline (PBS, pH 7.4) supplemented with 0.01% Tween-20 (PBST) as running buffer. The pre-filtered media containing the secreted antibodies was used directly for the assay. First, anti-Human IgG Fc (BR-1008-39, GE Healthcare) was amine-coupled onto a GLC sensor chip to generate the capture surfaces for the antibodies. About 4000 RU per flow cell of immobilized anti-human IgG Fc is achieved. Each clone is screened using the same method as follows.
(§4) (1) ‥5-10 uL of pre-filtered media in 10 mM sodium acetate buffer (pH4.5) was injected for 2 mins at 30 ul/min;
(§5) The koff rates of binding of each clone to each SIRP analyte were determined using SPR (Table C). The SPR screening conditions have been described herein, and the Koff values were determined using Langmuir kinetic fittings. The CD47 blocking properties (block, non-block, kick-off) are described in the last column of the Table C. Each antibody is identified according to its corresponding SEQ ID NO. SIRP analyte sequences are as follows: CV1-3, SEQ ID NO:18; v1, SEQ ID NO:5; v2, SEQ ID NO:6; cyno1, SEQ ID NO:11; cyno2, SEQ ID NO:12; m129, SEQ ID NO:7; NOD, SEQ ID NO: 8; BL6, SEQ ID NO:9; sirpb1, SEQ ID NO:13; sirpg, SEQ ID NO:15.

[21] = biological target: T21, C57BL/6 mouse SIRP-α D1 domain (mouse (C57BL/6 strain), UniProt P97797 32-148); experiment: as above
T21 sequence: T4 sequence
Description: as §3, §4, §5

[22] = biological target: T16, human SIRP-α v2 D1 domain; experiment: SPR, captured scFv-Fc
Summary of the method: as §1

[23] = biological target: T19, human SIRPβ isoform 1; experiment: SPR, captured scFv-Fc
T19 sequence (O00241 30-148 limits assumed): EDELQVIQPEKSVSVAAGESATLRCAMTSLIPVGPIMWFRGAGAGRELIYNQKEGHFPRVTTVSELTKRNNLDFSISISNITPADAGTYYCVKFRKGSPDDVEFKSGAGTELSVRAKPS
Summary of the method: as §1

[24] = biological target: T12, mouse 129 SIRP-α D1 domain; experiment: SPR, captured scFv-Fc, 100 nM analyte
[25] = biological target: T20, NOD mouse SIRP-α D1 domain; experiment: SPR, captured scFv-Fc, 100 nM analyte
[26] = biological target: T21, C57BL/6 mouse SIRP-α D1 domain; experiment: SPR, captured scFv-Fc, 100 nM analyte

B1: S123 (scFv)
scFv: EIVLTQSPGTLSVSPGERVTLTCRASQGIAGKIAWYQQKPGQAPRLLIYDASSRATGIPGRFSGSGSGTEFTLTITSLQSEDFAVYYCQQHYDWSPLTFGGGTKVEIKGQSSRSSGGGGSSGGGGSDVQLVESGGGLVQPGGSLRLSCTASGFTFRNYGMSWVRQAPGEGLEWVSASSGSGSTYYTDSVKGRFTISRDNSKNTLYLQMNSLRAEDTAIYYCAKVTWNNFFDYWGLGTLVTVSSSL[letters of human IgG1 Fc with C220S (EU numbers) and a few adjoining residues left out]
binding result [1]: no binding (tested: Koff > 5 × 10^3 (legend)) | binding result [2]: no binding (tested: Koff > 5 × 10^3 (legend)) | binding result [3]: no binding (tested: Koff > 5 × 10^3 (legend)) | binding result [4]: no binding (tested: Koff > 5 × 10^3 (legend)) | koff [5]: 0.00131 s⁻¹ | koff [6]: 0.00143 s⁻¹ | koff [7]: 0.00155 s⁻¹ | koff [8]: 0.00157 s⁻¹ | koff [9]: 0.00154 s⁻¹

B2: S128 (scFv)
scFv: ETVLTQSPATLSVSPGERATLSCRASQTVGSKLAWHQQKPGQAPRLLIYDASNRATGIPDRFSGSGSGTDFTLTISSLQTEDSAVYYCQQYYYWPPYRFGGGTKVEIKGQSSRSSGGGGSSGGGGSDVQLVESGGGVVRPGESLRLSCAASGFSFRSYAMNWVRQAPGEGLEWVSRIDSGGGGTDYADSVKGRFTISRDNSKNTLYLQMNSLRAEDTAVYYCAKQYDWNSFFDYWGLGAPVTVSSSL[letters of human IgG1 Fc with C220S (EU numbers) and a few adjoining residues left out]
notes: scFv-Fc, whole entry; tested as secreted medium; also called clone S128
binding result [10]: no binding (tested: about 1 µg/ml) | binding result [11]: no binding (tested: about 1 µg/ml)

B3: S11 scFv-Fc (scFv)
scFv: AVTQPASVSANPGETVKITCSGSSSGSYGWYQQKSPGSAPVTLIYETNKRPSNIPSRFSGSKSGSTATLTITGVQADDEAVYYCGSEDSSTYLSIFGAGTTLTVLGQSSRSSGGGGSSGGGGSMAAVTLDESGGGLQTPGGALSLVCKASGFTFSSFNMGWVRQAPGKGLEFVAAIYSGNSAEYGAAVQGRATISRDNGQSTVRLQLNNLRAEDTGIYFCAKDAGSGCYSGVCAGTSSIDAWGHGTEVIVSSSL[letters of human IgG1 Fc with C220S K317E (EU numbers) and a few adjoining residues left out]
binding result [12]: no binding (tested: 100 nM) | koff [13]: 3.35e-05 s⁻¹ | koff [14]: 0.000386 s⁻¹ | koff [15]: 0.00269 s⁻¹ | koff [16]: 0.000186 s⁻¹ | koff [17]: 0.00111 s⁻¹ | koff [18]: 0.00392 s⁻¹ | koff [19]: 0.000159 s⁻¹ | binding result [20]: binds | binding result [21]: binds

B4: S1 scFv-Fc (scFv)
scFv: ALTQPASVSANPGETVEITCSGGGSNNAYGWFQQKSPGSAPLTVIYDNGKRPSDIPSRFSGSKSDSTGTLTITRVQAEDEAVYYCGSADNSGAGVFGAGTTLTVLGQSSRSSGGGGSSGGGGSMAAVTLDESGGGLQTPGGALSLVCKGSGFTFSSHAMNWVRQAPGKGLEWVAGISSDGRFTYYGAAVQGRATISRDNGQSTVRLQLNNLRAEDTATYYCTKNGGCGSGGDLDCIDAWGHGTEVIVSSSL[letters of human IgG1 Fc with C220S (EU numbers) and a few adjoining residues left out]
binding result [22]: no binding (tested: 100 nM) | binding result [23]: no binding (tested: 100 nM) | koff [13]: 0.00233 s⁻¹ | koff [14]: 0.00219 s⁻¹ | koff [15]: 0.00219 s⁻¹ | koff [17]: 0.0348 s⁻¹ | koff [18]: 0.00406 s⁻¹ | koff [24]: 0.00212 s⁻¹ | koff [25]: 0.00789 s⁻¹ | koff [26]: 0.0017 s⁻¹
